Measurements published in PubChem BioAssay AID463173 (ICCB-Longwood Screening Facility, Harvard Medical School, 2010).
About 4,300 (8.3%) of roughly 52,000 compounds were called active. Cut-off read from the data, not from the text of the source: active = survival mostly below about 52% (no sharp cut-off); inactive = mostly above about 56%. The list shows a part of the results.

system: DeltatarO mutant; experiment: S. aureus survival, RN4220 and DeltatarO strains – OD600, teichoic acid synthesis inhibitors, primary screen (AID 463173); conditions: S. aureus RN4220 wild type/DeltatarO growth, OD600, 18 h, active compounds read low, screened at 18.75 µg/mL (by protocol)

| SMILES | survival |
| --- | --- |
| CC(=O)c1ccc(NC(=O)C2=CC(c3cccs3)=NS(=O)(=O)N2C)cc1 | inactive: 95% |
| N#Cc1c(-n2ncnc2-c2ccc(F)cc2)sc2c1CCCCC2 | active: -4% |
| CCCSc1ncc(Cl)c(C(=O)Nc2sc3c(c2C(=O)OC)CCCC3)n1 | inactive: 53% |
| O=C(CSCc1cnn(-c2ccccc2)c1-n1cccc1)NCc1cccc(Cl)c1 | inactive: 55% |
| O=C(C1CCN(S(=O)(=O)c2ccc(Br)s2)CC1)N1CCN(c2cccc(C(F)(F)F)c2)CC1 | inactive: 67% |
| Cc1cc(C)c2c(CC(=O)N(Cc3ccc(Cl)cc3)Cc3ccco3)coc2c1 | inactive: 57% |
| O=C(Nc1ccccc1)c1nc[nH]c1C(=O)O | inactive: 64% |
| CCOC(=O)CSc1nc2cc3c(cc2c(=O)n1Cc1ccc(C(=O)NCCc2ccc(OC)c(OC)c2)cc1)OCO3 | inactive: 83% |
| COc1cc(OC)c(N(C)C(=O)c2c(C)oc3ncn(CC(C)C)c(=O)c23)cc1Cl | inactive: 83% |
| CCSc1nnc2nc(C)cc(C)n12 | inactive: 90% |
| Cc1c(-c2ccccc2)nc2c(Cl)cccc2c1C(=O)OCC(=O)c1ccc(F)cc1 | inactive: 75% |
| Cc1ccc(NC(=O)Cn2cc(S(=O)(=O)Cc3ccc(F)cc3)c3ccccc32)cc1Cl | inactive: 84% |
| COc1ccc(-c2cc(C(F)(F)F)nc(SCC(=O)NCCc3ccccc3)n2)cc1 | inactive: 121% |
| CCOc1ccccc1C(=O)N(Cc1sccc1C)C1CCS(=O)(=O)C1 (centres undefined) | inactive: 86% |
| CCc1ccc(-n2c(=O)c3c4c(sc3n(CC(=O)c3ccc(Br)cc3)c2=O)CCC4)cc1 | inactive: 127% |
| Cc1ccc(S(=O)(=O)Nc2ccc3nc(-c4ccc(F)cc4)oc3c2)cc1 | active: 11% |
| CC(C)(C)NC(=O)c1oc2ccccc2c1NC(=O)c1ccccc1F | inactive: 69% |
| COc1cc(NC(=O)Cn2c(=O)ccc3cc(S(=O)(=O)N4CCCC4)ccc32)cc(OC)c1 | inactive: 93% |
| CCC(C)NC(=O)CCC(=O)N1Cc2ccccc2Oc2ncccc21 (centres undefined) | inactive: 117% |
| CC1=C(C(=O)N2CCN(c3ccccc3)CC2)C2(CCCCC2)OC1=O | inactive: 86% |

| SMILES | survival |
| --- | --- |
| COc1ccc(CNC(=O)c2cc3ccccn3n2)cc1OC | inactive: 79% |
| Cc1ccc(-n2nc(C)c(C(=O)O)c2-n2cccc2)cc1 | inactive: 102% |
| Cc1ccc(CNC(=O)c2c(C)oc3ncnc(N4CCOCC4)c23)cc1 | active: 17% |
| CCOC(=O)c1c(C)[nH]c(C)c1S(=O)(=O)N(C)CC(=O)Nc1ccc(CC)cc1 | inactive: 97% |
| Cc1cccc(N2CCN(C(=O)C3CCN(c4ncnc5c4nc4n5CCCCC4)CC3)CC2C)c1 (centres undefined) | active: 6% |
| Cn1c(=O)c2c(nc(Oc3ccccc3Cl)n2Cc2ccc(C#N)cc2)n(C)c1=O | inactive: 87% |
| COc1cc(Nc2ncc3c(n2)CCN(Cc2cccc(C)c2)C3)cc(OC)c1 | inactive: 83% |
| Cc1oc2c(C)c3oc(=O)c(CC(=O)N4CCCCC4)c(C)c3cc2c1C | inactive: 75% |
| CCCN(CCC)C(=O)C(Cc1ccccc1)NS(=O)(=O)c1ccc2c(c1)c(=O)n(C)c(=O)n2C (centres undefined) | inactive: 84% |
| Cc1cccc(C)c1NC(=O)Cn1nnc(C(=O)NCc2ccc(F)cc2)c1N | inactive: 101% |
| Cc1ccccc1CCNC(=O)C1CCN(S(=O)(=O)c2ccc3c(ccn3C)c2)CC1 | inactive: 91% |
| C=CCNc1nnc(Cl)c2ccccc12 | inactive: 103% |
| Cc1c(C(=O)NCCc2ccccc2)oc2ccccc12 | inactive: 95% |
| CCCc1nc(SCC(=O)N2CCCC2)c2ccccc2n1 | inactive: 80% |
| O=C(CCn1nnc(-c2cccs2)n1)NCc1ccccc1Cl | inactive: 103% |
| CCOc1ccc(NC(=O)CSc2nnc(C)n2CC2CCCO2)cc1 (centres undefined) | inactive: 80% |
| O=C(NCC1(c2ccccc2)CCCC1)C(=O)Nc1cccc(Br)c1 | inactive: 78% |
| CCc1nn(CC(=O)Nc2cccc(C(C)=O)c2)c(=O)c2cc3sccc3n12 | inactive: 63% |
| Cc1cccc(NC(=O)C2CCN(c3nnc(C)c4c(C)n(-c5ccccc5)nc34)CC2)c1C | inactive: 78% |
| O=C(NCc1ccccc1)C(=O)NCC(c1ccco1)S(=O)(=O)c1cccs1 (centres undefined) | inactive: 96% |

| SMILES | survival |
| --- | --- |
| Cc1ccc(Cl)cc1NC(=O)C1CCCN(c2cnccn2)C1 (centres undefined) | inactive: 88% |
| CN(C)c1ccc(C(CNS(=O)(=O)c2ccc(Cl)cc2)N2CCOCC2)cc1 (centres undefined) | active: 37% |
| CN(c1ccccc1C(=O)O)S(=O)(=O)c1ccc2[nH]c(=O)oc2c1 | inactive: 96% |
| CCOC(=O)c1ccccc1NC(=O)Cn1c(=O)n(Cc2nc(C)no2)c(=O)c2ccccc21 | inactive: 83% |
| O=C(CCn1c(=O)c2ccccc2n(Cc2cccc(Cl)c2)c1=O)NCCc1ccccc1 | inactive: 71% |
| CCCSc1ncc(Cl)c(C(=O)Nc2nc3ccc(C)cc3s2)n1 | active: 49% |
| CC1(C)CC(n2c(SCC#N)nc3c(c2=O)C2(CCCC2)Cc2ccccc2-3)CCO1 (centres undefined) | inactive: 100% |
| Cc1cc(C)c2c(CC(=O)Nc3ccccc3C(F)(F)F)coc2c1 | inactive: 72% |
| CCc1ccccc1NC(=O)Cn1nc(C(F)(F)F)c2c1CCC2 | inactive: 75% |
| Cc1ccc(/C=C(\C#N)C(=O)Nc2cccc(Br)c2)o1 | inactive: 71% |
| Cc1ccc(Cl)cc1N1CCN(C(=O)c2cc3c(=O)oc4ccccc4c3s2)CC1 | inactive: 55% |
| CC(C)CNC(=O)c1ccccc1NC(=O)c1ccco1 | inactive: 105% |
| CCN1CCN(C(c2ccccc2Cl)c2c(O)cc(C)n(CCOC)c2=O)CC1 (centres undefined) | inactive: 89% |
| Cc1oc(-c2ccc(Cl)cc2)nc1CN1CCCC(C(=O)NCc2ccccc2)C1 (centres undefined) | inactive: 93% |
| Cc1ccc(-n2c(COCC(=O)O)nc3cccnc32)cc1 | inactive: 86% |
| COc1cccc(C(=O)Nc2nc(-c3ccc(Br)cc3)ns2)c1 | inactive: 65% |
| CCOC(=O)Cc1ccc(NC(=O)N(Cc2ccc(CC)cc2)Cc2cn[nH]c2-c2ccc(OC)cc2)cc1 | inactive: 62% |
| Cc1nc2ccc(S(=O)(=O)NCC(=O)Nc3ccc(F)cc3F)cc2s1 | inactive: 120% |
| Cc1ccccc1OCCn1c(CCNC(=O)C2CCCCC2)nc2ccccc21 | inactive: 77% |
